Experimental data published in the supplement of paper PMC4967469.

Experiments:
Test in all cases: Viability of human cancer cell lines after 72 h of drug (GDSC screen)
VNLG/124 = compound: CCCC(=O)OCc1ccc(OC(=O)/C=C(C)/C=C/C=C(C)/C=C/C2=C(C)CCCC2(C)C)cc1 [VNLG/124]; conditions: top dose 5.12 µM; top dose inferred
Method: (§1)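 Human cancer cell lines in 384-well plates, medium with 10% serum, drug for 72 h over a 256-fold dose range (nine 2-fold or five 4-fold steps up to the top dose). Adherent lines were fixed and stained with the nucleic acid dye Syto60, suspension lines read with resazurin; signal relative to control wells, capped at 0 and 100%. One two-parameter sigmoid per drug and line, fitted in a mixed model over all curves with the slope shared within a line.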

NSC-87877 = compound: O=S(=O)(O)c1ccc2cc(N=Nc3cc(S(=O)(=O)O)c4cccnc4c3O)ccc2c1 [NSC-87877]; conditions: top dose 16 µM; top dose inferred
Method: as §1

BX-912 = compound: O=C(Nc1cccc(Nc2ncc(Br)c(NCCc3cnc[nH]3)n2)c1)N1CCCC1 [BX-912]; conditions: top dose 10.24 µM; top dose inferred
Method: as §1

LAQ824 = compound: O=C(/C=C/c1ccc(CN(CCO)CCc2c[nH]c3ccccc23)cc1)NO [LAQ824]; conditions: top dose 1.024 µM; top dose inferred
Method: as §1

Masitinib = compound: Cc1ccc(NC(=O)c2ccc(CN3CCN(C)CC3)cc2)cc1Nc1nc(-c2cccnc2)cs1 [Masitinib]; conditions: top dose 20 µM
Method: as §1

Tamoxifen = compound: CC/C(=C(\c1ccccc1)c1ccc(OCCN(C)C)cc1)c1ccccc1 [Tamoxifen]; conditions: top dose 5 µM
Method: as §1

Bleomycin = compound: Cc1c(N)nc([C@H](CC(N)=O)NC[C@H](N)C(N)=O)nc1C(=O)N[C@H](C(=O)N[C@H](C)[C@@H](O)[C@H](C)C(=O)N[C@H](C(=O)NCCc1nc(-c2nc(C(=O)NCCC[S+](C)C)cs2)cs1)[C@@H](C)O)[C@@H](OC1OC(CO)C(O)C(O)C1OC1OC(CO)C(O)C(OC(N)=O)C1O)c1cnc[nH]1 [Bleomycin]
Method: as §1

OSI-930 = compound: O=C(Nc1ccc(OC(F)(F)F)cc1)c1sccc1NCc1ccnc2ccccc12 [OSI-930]; conditions: top dose 10.24 µM
Method: as §1

Elesclomol = compound: CN(NC(=O)CC(=O)NN(C)C(=S)c1ccccc1)C(=S)c1ccccc1 [Elesclomol]; conditions: top dose 0.2 µM; top dose inferred
Method: as §1

[1] = top dose 50 µM, screen: GDSC drug entry 1378, top dose inferred
[2] = top dose 64 µM, screen: GDSC drug entry 190

| Cell Line | AUC (VNLG/124) | IC50 (VNLG/124) | AUC (NSC-87877) | IC50 (NSC-87877) | AUC (BX-912) | IC50 (BX-912) | AUC (LAQ824) | IC50 (LAQ824) | AUC (Masitinib) | IC50 (Masitinib) | AUC (Tamoxifen) | IC50 (Tamoxifen) | AUC (Bleomycin; [1]) | IC50 (Bleomycin; [1]) | AUC (Bleomycin; [2]) | IC50 (Bleomycin; [2]) | AUC (OSI-930) | IC50 (OSI-930) | AUC (Elesclomol) | IC50 (Elesclomol) |
| --- | --- | --- | --- | --- | --- | --- | --- | --- | --- | --- | --- | --- | --- | --- | --- | --- | --- | --- | --- | --- |
| 786-0 (kidney, adherent) | 0.978 | > 5.12 µM | 0.77 | 5.63 µM | 0.913 | > 10.2 µM | 0.229 | 0.0113 µM | 0.751 | 6.14 µM | 0.975 | > 5 µM | 0.317 | 1.01 µM | 0.067 | < 0.25 µM | 0.973 | > 10.2 µM | – | – |
| CAL-54 (kidney, adherent) | 0.973 | > 5.12 µM | 0.949 | > 16 µM | 0.882 | > 10.2 µM | 0.415 | 0.0363 µM | 0.976 | > 20 µM | 0.954 | > 5 µM | 0.205 | 0.362 µM | 0.041 | < 0.25 µM | 0.985 | > 10.2 µM | – | – |
| SW1088 (glioma, adherent) | 0.938 | > 5.12 µM | 0.979 | > 16 µM | 0.919 | > 10.2 µM | 0.783 | 0.574 µM | 0.923 | > 20 µM | 0.908 | > 5 µM | 0.668 | 10.6 µM | 0.895 | > 64 µM | 0.949 | > 10.2 µM | – | – |
| U031 (kidney, adherent) | 0.979 | > 5.12 µM | 0.846 | 12.3 µM | 0.891 | > 10.2 µM | 0.466 | 0.0514 µM | 0.947 | > 20 µM | 0.983 | > 5 µM | 0.052 | < 0.195 µM | 0.254 | 0.765 µM | 0.976 | > 10.2 µM | – | – |
| PCI-38 (head and neck, adherent) | 0.982 | > 5.12 µM | 0.986 | > 16 µM | 0.972 | > 10.2 µM | 0.727 | 0.283 µM | 0.933 | > 20 µM | 0.985 | > 5 µM | 0.289 | 0.792 µM | 0.625 | 8.85 µM | 0.981 | > 10.2 µM | – | – |
| HCE-4 (oesophagus, adherent) | 0.99 | > 5.12 µM | 0.904 | 15.9 µM | 0.96 | > 10.2 µM | 0.529 | 0.0761 µM | 0.987 | > 20 µM | 0.985 | > 5 µM | 0.387 | 1.6 µM | 0.213 | 0.677 µM | 0.985 | > 10.2 µM | – | – |
| HO-1-N-1 (head and neck, adherent) | 0.984 | > 5.12 µM | 0.989 | > 16 µM | 0.902 | > 10.2 µM | 0.443 | 0.0452 µM | 0.985 | > 20 µM | 0.958 | > 5 µM | 0.199 | 0.443 µM | 0.541 | 5.13 µM | 0.983 | > 10.2 µM | – | – |
| MOLT-13 (T-cell lymphoblastic leukaemia, suspension) | 0.927 | > 5.12 µM | – | – | 0.558 | 0.904 µM | – | – | 0.679 | 3.69 µM | 0.962 | > 5 µM | 0.791 | 19.5 µM | – | – | 0.916 | > 10.2 µM | 0.987 | > 0.2 µM |
| NCI-H1793 (lung adenocarcinoma, adherent) | 0.982 | > 5.12 µM | 0.979 | > 16 µM | 0.971 | > 10.2 µM | 0.848 | > 1.02 µM | 0.972 | > 20 µM | 0.974 | > 5 µM | 0.847 | > 50 µM | 0.748 | 28.4 µM | 0.959 | > 10.2 µM | – | – |
| KARPAS-1106P (B-cell lymphoma, suspension) | – | – | – | – | – | – | – | – | – | – | 0.976 | > 5 µM | 0.857 | 29.9 µM | – | – | – | – | 0.685 | 0.037 µM |
| J82 (bladder, adherent) | 0.977 | > 5.12 µM | 0.979 | > 16 µM | 0.985 | > 10.2 µM | 0.556 | 0.0908 µM | 0.948 | > 20 µM | 0.94 | > 5 µM | 0.508 | 3.28 µM | 0.276 | 0.927 µM | 0.979 | > 10.2 µM | – | – |
| NCI-H2228 (lung adenocarcinoma, adherent) | 0.93 | > 5.12 µM | 0.932 | > 16 µM | 0.942 | > 10.2 µM | 0.369 | 0.0232 µM | 0.914 | > 20 µM | 0.961 | > 5 µM | 0.775 | 31 µM | 0.342 | 1.16 µM | 0.943 | > 10.2 µM | – | – |
| NCI-H146 (small cell lung carcinoma, suspension) | – | – | – | – | – | – | – | – | – | – | 0.991 | > 5 µM | 0.981 | > 50 µM | – | – | – | – | 0.839 | 0.0981 µM |
| NCI-H1105 (small cell lung carcinoma, suspension) | – | – | – | – | – | – | – | – | – | – | 0.993 | > 5 µM | 0.88 | 36.4 µM | – | – | – | – | 0.971 | > 0.2 µM |
| KG-1 (acute myeloid leukaemia, suspension) | 0.974 | > 5.12 µM | 0.979 | > 16 µM | 0.784 | 3.88 µM | 0.405 | 0.0362 µM | 0.686 | 3.89 µM | 0.974 | > 5 µM | – | – | 0.154 | 0.405 µM | 0.888 | 9.42 µM | – | – |

A lower IC50 marks a more sensitive line; a fit beyond the top or the lowest dose is shown as a bound at that dose. AUC is the area under the same curve over the 256-fold range up to the top dose, as a fraction; it is 1 without any effect and falls as sensitivity rises. For part of these data: The top dose, if marked as inferred, is not printed in the source and was worked back from the curve model. For part of these data: An entry number marks a drug with two screens in the source, which often give different values.
